Results: patent US20040229298A1

B1: GST-NeDLG PDZ domains 1, 2 fusion protein (protein)
chain: [about 200 residues not printed]SDLIEGRGSDGMFKYEEIVLERGNSGLGFSIAGGIDNPHVPDDPGIFITKIIPGGAAAMDGRLGVNDCVLRVNEVDVSEVVHSRAVEALKEAGPVVRLVVRRRQPPPETIMEVNLLKGPKGLGFSIAGGIGNQHIPGDNSIYITKIIEGGAAQKDGRLQIGDRLLAVNNTNLQDVRHEEAVASLKNTSDMVYLKVAKPGSL
B2: GST-MINT1 PDZ domains 1, 2 fusion protein (protein)
chain: [about 200 residues not printed]SDLIEGRIHFSKSENCKDVFIEKQKGEILGVVIVESGWGSILPTVIIANMMHGGPAEKSGKLNIGDQIMSINGTSLVGLPLSTCQSIIKGLKNQSRVKLNIVRCPPVTTVLIRRPDLRYQLGFSVQNGIICSLMRGGIAERGGVRVGHRIIEINGQSVVATPHEKIVHILSNAVGEIHMKTMPAAMYRLLTAQE
B3: GST-PDZK1 PDZ domains 2, 3, 4 fusion protein (protein)
chain: [about 200 residues not printed]SDLIEGRGGVQTWTQPRLCYLVKEGGSYGFSLKTVQGKKGVYMTDITPQGVAMRAGVLADDHLIEVNGENVEDASHEEVVEKVKKSGSRVMFLLVDKETDKRHVEQKIQFKRETASLKLLPHQPRIVEMKKGSNGYGFYLRAGSEQKGQIIKDIDSGSPAEEAGLKNNDLVVAVNGESVETLDHDSVVEMIRKGGDQTSLLVVDKETDNMYRLAHFSPFLYYQSQELPNGSVKEAPAPTPTSLEVSSPPDTTEEVDHKPKLCRLAKGENGYGFHLNAIRGLPGSFIKEVQKGGPADLAGLEDEDVIIEVNGVNVLDEPYEKVVDRIQSSGKNVTLLVCGKKAYDYFQA

Tests used:
[1] = molecular target: T1, HPV16 E6 PDZ ligand peptide (biotinylated C-terminal peptide of the E6 protein of HPV 16) (human papillomavirus 16); assay: G assay ELISA, signal over GST-only well
[2] = molecular target: T1, HPV16 E6 PDZ ligand peptide …; assay: G assay ELISA, immobilised GST-PDZ, 10 uM biotinylated peptide

Binder	OD S/N [1]	Ave OD [2]
B1	19.8 and 17.1	3.4 A450 nm and 3.12 A450 nm
B2	2.11	0.608 A450 nm
B3	2.64	0.518 A450 nm

“And” between values parts separate entries of the source, which are not always exact repeats. Identical values can stand only once.
